From the supplement of paper PMC8728848
This is one part of the list.

Assays:
Assay in all cases: glycan array binding signal (z-score within array); higher = stronger binding
Conditions in all cases: glycan notation: IUPAC condensed, linker removed
Gal(a1-6)Glc = target: Gal(a1-6)Glc
Procedure, shortened: (§1)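 Columns mapping to the same glycan were averaged after glycan names were converted to IUPAC-condensed notation. The data come from 3228 arrays in the Consortium for Functional Glycomics database, limited to those with an available protein sequence. Binding is reported as a within-array Z-score averaged across arrays of one protein sequence and across linkers.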

Gal(b1-2)Gal = target: Gal(b1-2)Gal
Procedure, shortened: as §1

Gal(b1-3)Gal = target: Gal(b1-3)Gal
Procedure, shortened: as §1

Gal(b1-3)Gal(b1-4)GlcNAc = target: Gal(b1-3)Gal(b1-4)GlcNAc
Procedure, shortened: as §1

Gal(b1-3)GalNAc = target: Gal(b1-3)GalNAc
Procedure, shortened: as §1

[1] = target: Gal(b1-3)GalNAc(a1-3)[Fuc(a1-2)]Gal(b1-4)Glc
Procedure, shortened: as §1

[2] = target: Gal(b1-3)GalNAc(a1-3)[Fuc(a1-2)]Gal(b1-4)GlcNAc
Procedure, shortened: as §1

Gal(b1-3)GalNAc(b1-3)Gal = target: Gal(b1-3)GalNAc(b1-3)Gal
Procedure, shortened: as §1

[3] = target: Gal(b1-3)GalNAc(b1-3)Gal(a1-4)Gal(b1-4)Glc
Procedure, shortened: as §1

[4] = target: Gal(b1-3)GalNAc(b1-4)Gal(b1-4)Glc
Procedure, shortened: as §1

[5] = target: Gal(b1-3)GalNAc(b1-4)[Neu5Ac(a2-3)]Gal(b1-4)Glc
Procedure, shortened: as §1

Gal(b1-3)GlcNAc = target: Gal(b1-3)GlcNAc
Procedure, shortened: as §1

[6] = target: Gal(b1-3)GlcNAc(a1-3)Gal(b1-4)GlcNAc
Procedure, shortened: as §1

[7] = target: Gal(b1-3)GlcNAc(a1-6)Gal(b1-4)GlcNAc
Procedure, shortened: as §1

Gal(b1-3)GlcNAc(b1-2)Man = target: Gal(b1-3)GlcNAc(b1-2)Man
Procedure, shortened: as §1

[8] = target: Gal(b1-3)GlcNAc(b1-2)Man(a1-3)[Gal(b1-3)GlcNAc(b1-2)Man(a1-6)]Man(b1-4)GlcNAc(b1-4)GlcNAc
Procedure, shortened: as §1

[9] = target: Gal(b1-3)GlcNAc(b1-2)Man(a1-3)[Gal(b1-3)GlcNAc(b1-2)Man(a1-6)]Man(b1-4)GlcNAc(b1-4)[Fuc(a1-6)]GlcNAc
Procedure, shortened: as §1

[10] = target: Gal(b1-3)GlcNAc(b1-2)Man(a1-3)[GlcNAc(b1-4)][Gal(b1-3)GlcNAc(b1-2)Man(a1-6)]Man(b1-4)GlcNAc(b1-4)GlcNAc
Procedure, shortened: as §1

[11] = target: Gal(b1-3)GlcNAc(b1-2)[Gal(b1-3)GlcNAc(b1-6)]Man(a1-6)[Gal(b1-3)GlcNAc(b1-2)Man(a1-3)]Man(b1-4)GlcNAc(b1-4)GlcNAc
Procedure, shortened: as §1

[12] = target: Gal(b1-3)GlcNAc(b1-3)Gal(b1-3)GlcNAc
Procedure, shortened: as §1

[13] = target: Gal(b1-3)GlcNAc(b1-3)Gal(b1-4)Glc
Procedure, shortened: as §1

[14] = target: Gal(b1-3)GlcNAc(b1-3)Gal(b1-4)GlcNAc
Procedure, shortened: as §1

[15] = target: Gal(b1-3)GlcNAc(b1-3)Gal(b1-4)GlcNAc(b1-2)Man(a1-3)[Gal(b1-3)GlcNAc(b1-3)Gal(b1-4)GlcNAc(b1-2)Man(a1-6)]Man(b1-4)GlcNAc(b1-4)GlcNAc
Procedure, shortened: as §1

[16] = target: Gal(b1-3)GlcNAc(b1-3)Gal(b1-4)GlcNAc(b1-2)[Gal(b1-3)GlcNAc(b1-3)Gal(b1-4)GlcNAc(b1-6)]Man(a1-6)[Gal(b1-3)GlcNAc(b1-3)Gal(b1-4)GlcNAc(b1-2)Man(a1-3)]Man(b1-4)GlcNAc(b1-4)[Fuc(a1-6)]GlcNAc
Procedure, shortened: as §1

[17] = target: Gal(b1-3)GlcNAc(b1-3)Gal(b1-4)GlcNAc(b1-3)Gal(b1-4)GlcNAc(b1-2)[Gal(b1-3)GlcNAc(b1-3)Gal(b1-4)GlcNAc(b1-3)Gal(b1-4)GlcNAc(b1-6)]Man(a1-6)[Gal(b1-3)GlcNAc(b1-3)Gal(b1-4)GlcNAc(b1-3)Gal(b1-4)GlcNAc(b1-2)Man(a1-3)]Man(b1-4)GlcNAc(b1-4)[Fuc(a1-6)]GlcNAc
Procedure, shortened: as §1

[18] = target: Gal(b1-3)GlcNAc(b1-3)Gal(b1-4)GlcNAc(b1-6)[Gal(b1-3)GlcNAc(b1-3)]Gal(b1-4)Glc
Procedure, shortened: as §1

[19] = target: Gal(b1-3)GlcNAc(b1-3)Gal(b1-4)[Fuc(a1-3)]GlcNAc
Procedure, shortened: as §1

[20] = target: Gal(b1-3)GlcNAc(b1-3)Gal(b1-4)[Fuc(a1-3)]GlcNAc(b1-6)[Gal(b1-3)GlcNAc(b1-3)]Gal(b1-4)Glc
Procedure, shortened: as §1

[21] = target: Gal(b1-3)GlcNAc(b1-3)GalNAc
Procedure, shortened: as §1

[22] = target: Gal(b1-3)GlcNAc(b1-6)Gal(b1-4)GlcNAc
Procedure, shortened: as §1

[23] = target: Gal(b1-3)GlcNAc(b1-6)GalNAc
Procedure, shortened: as §1

[24] = target: Gal(b1-3)GlcNAc(b1-6)[Gal(b1-3)]GalNAc
Procedure, shortened: as §1

Gal(b1-3)GlcNAc6S = target: Gal(b1-3)GlcNAc6S
Procedure, shortened: as §1

[25] = target: Gal(b1-3)[Fuc(a1-4)]GlcNAc
Procedure, shortened: as §1

[26] = target: Gal(b1-3)[Fuc(a1-4)]GlcNAc(b1-2)Man
Procedure, shortened: as §1

[27] = target: Gal(b1-3)[Fuc(a1-4)]GlcNAc(b1-2)Man(a1-3)[Gal(b1-3)[Fuc(a1-4)]GlcNAc(b1-2)Man(a1-6)]Man(b1-4)GlcNAc(b1-4)[Fuc(a1-6)]GlcNAc
Procedure, shortened: as §1

[28] = target: Gal(b1-3)[Fuc(a1-4)]GlcNAc(b1-3)Gal(b1-3)[Fuc(a1-4)]GlcNAc
Procedure, shortened: as §1

[29] = target: Gal(b1-3)[Fuc(a1-4)]GlcNAc(b1-3)Gal(b1-4)[Fuc(a1-3)]GlcNAc
Procedure, shortened: as §1

[30] = target: Gal(b1-3)[Fuc(a1-4)]GlcNAc(b1-6)GalNAc
Procedure, shortened: as §1

[31] = target: Gal(b1-3)[GlcNAc(b1-6)]GalNAc
Procedure, shortened: as §1

[32] = target: Gal(b1-3)[Neu5Ac(a2-6)]GalNAc
Procedure, shortened: as §1

[33] = target: Gal(b1-3)[Neu5Ac(a2-6)]GlcNAc(b1-4)Gal(b1-4)Glc
Procedure, shortened: as §1

[34] = target: Gal(b1-3)[Neu5Ac(b2-6)]GalNAc
Procedure, shortened: as §1

Gal(b1-4)Gal = target: Gal(b1-4)Gal
Procedure, shortened: as §1

[35] = target: Gal(b1-4)GalNAc(a1-3)[Fuc(a1-2)]Gal(b1-4)GlcNAc
Procedure, shortened: as §1

B1: AT1G15820(2) (Arabidopsis thaliana), Q9LMQ2 (protein)
chain: MAMAVSGAVLSGLGSSFLTGGKRGATALASGVGTGAQRVGRKTLIVAAAAAQPKKSWIPAVKGGGNFLDPEWLDGSLPGDFGFDPLGLGKDPAFLKWYREAELIHGRWAMAAVLGIFVGQAWSGVAWFEAGAQPDAIAPFSFGSLLGTQLLLMGWVESKRWVDFFNPDSQSVEWATPWSKTAENFANYTGDQGYPGGRFFDPLGLAGKNRDGVYEPDFEKLERLKLAEIKHSRLAMVAMLIFYFEAGQGKTPLGALGL
In the case of B1, the “glycan array binding signal (z-score)” value (Gal(a1-6)Glc) is reported as 0.096, the “glycan array binding signal (z-score)” value (Gal(b1-2)Gal) is reported as 0.453 and the “glycan array binding signal (z-score)” value (Gal(b1-3)Gal) is reported as -0.507. For the same binder, the “glycan array binding signal (z-score)” value (Gal(b1-3)Gal(b1-4)GlcNAc) was -0.298, the “glycan array binding signal (z-score)” value (Gal(b1-3)GalNAc) was 0.218 and the “glycan array binding signal (z-score)” value [1] was -0.146. For the same binder, the “glycan array binding signal (z-score)” value [2] was 0.067, the “glycan array binding signal (z-score)” value (Gal(b1-3)GalNAc(b1-3)Gal) was -0.009 and the “glycan array binding signal (z-score)” value [3] was -0.485. For the same binder, the “glycan array binding signal (z-score)” value [4] was 2.89, the “glycan array binding signal (z-score)” value [5] was -0.095 and the “glycan array binding signal (z-score)” value (Gal(b1-3)GlcNAc) was 0.12. For the same binder, the “glycan array binding signal (z-score)” value [6] was -0.509, the “glycan array binding signal (z-score)” value [7] was -0.545 and the “glycan array binding signal (z-score)” value (Gal(b1-3)GlcNAc(b1-2)Man) was -0.413. For the same binder, the “glycan array binding signal (z-score)” value [8] was 0.477, the “glycan array binding signal (z-score)” value [9] was 0.282 and the “glycan array binding signal (z-score)” value [10] was -0.114. The “glycan array binding signal (z-score)” value [11] was -0.324, the “glycan array binding signal (z-score)” value [12] was -0.145 and the “glycan array binding signal (z-score)” value [13] was -0.032. For the same binder, the “glycan array binding signal (z-score)” value [14] was -0.405, the “glycan array binding signal (z-score)” value [15] was 1.29 and the “glycan array binding signal (z-score)” value [16] was 0.235. For the same binder, the “glycan array binding signal (z-score)” value [17] was 1.41, the “glycan array binding signal (z-score)” value [18] was 0.059 and the “glycan array binding signal (z-score)” value [19] was -0.125. For the same binder, the “glycan array binding signal (z-score)” value [20] was -0.541, the “glycan array binding signal (z-score)” value [21] was -0.011 and the “glycan array binding signal (z-score)” value [22] was -0.189. The “glycan array binding signal (z-score)” value [23] was 0.408, the “glycan array binding signal (z-score)” value [24] was 0.112 and the “glycan array binding signal (z-score)” value (Gal(b1-3)GlcNAc6S) was -0.975. The “glycan array binding signal (z-score)” value [25] was -0.161, the “glycan array binding signal (z-score)” value [26] was -0.603 and the “glycan array binding signal (z-score)” value [27] was -0.308. The “glycan array binding signal (z-score)” value [28] was -0.258, the “glycan array binding signal (z-score)” value [29] was -0.396 and the “glycan array binding signal (z-score)” value [30] was -0.229. For the same binder, the “glycan array binding signal (z-score)” value [31] was 0.174, the “glycan array binding signal (z-score)” value [32] was -0.47 and the “glycan array binding signal (z-score)” value [33] was -0.062. For the same binder, the “glycan array binding signal (z-score)” value [34] was -0.341, the “glycan array binding signal (z-score)” value (Gal(b1-4)Gal) was -0.449 and the “glycan array binding signal (z-score)” value [35] was 0.383.
